This note sets out measurements from the supplement of paper PMC4967469.

Lines with a small IC50 respond at low doses; fits outside the tested doses are given as limits. For AUC the same curve is integrated over the 256-fold range of doses and scaled to a fraction; values near 1 show little effect. The top dose, if marked as inferred, was calculated from the reported fits. A value given as a limit tells only on which side of the number the result lay.

Holding throughout (assay): Viability of human cancer cell lines after 72 h of drug (GDSC screen)
Compound in one assay: Nc1cccc2c1CN(C1CCC(=O)NC1=O)C2=O [Lenalidomide]
Conditions: top dose 5 µM; top dose inferred. Here is the method:
(§1)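 Human cancer cell lines in 384-well plates, medium with 10% serum, drug for 72 h over a 256-fold dose range (nine 2-fold or five 4-fold steps up to the top dose). Adherent lines were fixed and stained with the nucleic acid dye Syto60, suspension lines read with resazurin; signal relative to control wells, capped at 0 and 100%. One two-parameter sigmoid per drug and line, fitted in a mixed model over all curves with the slope shared within a line.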

Compound in another assay: CCC/C=C/C=C/C(=O)O[C@H]1/C(=C/C(=O)OC)C[C@H]2C[C@H]([C@@H](C)O)OC(=O)C[C@H](O)C[C@@H]3C[C@H](OC(C)=O)C(C)(C)[C@](O)(C[C@@H]4C/C(=C/C(=O)OC)C[C@H](/C=C/C(C)(C)[C@]1(O)O2)O4)O3 [Bryostatin 1]
Conditions: top dose 0.008 µM; top dose inferred. The method, then:
as §1

Compound in a further assay: COc1ccc(COc2ccc(Cc3cnc(N)nc3N)cc2OC)cc1 [GW-2580]
Conditions: top dose 20 µM; top dose inferred. The method, then:
as §1

Compound in a further assay: CC(C)N(CCCNC(=O)Nc1ccc(C(C)(C)C)cc1)C[C@H]1O[C@@H](n2cc(Br)c3c(N)ncnc32)[C@H](O)[C@@H]1O [SGC0946]
Conditions: top dose 0.5 µM; top dose inferred. Here is the method: as §1

With 22RV1 (prostate, adherent), the AUC was determined as 0.978 in the assay with Lenalidomide, 0.975 with Bryostatin 1, 0.982 with GW-2580 and 0.98 in the assay with SGC0946. Moreover, the 50% inhibitory concentration (IC50) (usually the midpoint of a concentration-inhibition curve) with Lenalidomide was above 5000 nM; with Bryostatin 1, above 8 nM; with GW-2580, above 20000 nM; in the assay with SGC0946, above 500 nM.
As for 42-MG-BA (glioma, adherent), the AUC with Lenalidomide turned out to be 0.971; with Bryostatin 1 it was 0.985; with GW-2580 it was 0.985; with SGC0946, 0.982. Further, the half-inhibitory concentration (IC50) in the assay with Lenalidomide was above 5000 nM; with Bryostatin 1, above 8 nM; with GW-2580, above 20000 nM; with SGC0946, above 500 nM.
Take 201T (lung adenocarcinoma, adherent): the AUC stood at 0.981 in the assay with Lenalidomide, 0.841 with Bryostatin 1 and 0.98 with GW-2580. The 50% inhibitory concentration (IC50) is above 5000 nM in the assay with Lenalidomide, 7.73 nM with Bryostatin 1 and above 20000 nM in the assay with GW-2580.
As to 451Lu (melanoma, adherent), the AUC in the assay with Lenalidomide worked out at 0.985; with Bryostatin 1, 0.989; with GW-2580, 0.989; in the assay with SGC0946 it was 0.986. The IC50 was above 5000 nM with Lenalidomide, above 8 nM in the assay with Bryostatin 1, above 20000 nM with GW-2580 and above 500 nM with SGC0946.
For the cell line 639-V (bladder, adherent), the AUC with Lenalidomide is 0.96; with Bryostatin 1, 0.959; with GW-2580, 0.987; with SGC0946, 0.991. In addition, the half-maximal inhibitory concentration (IC50) is above 5000 nM with Lenalidomide, above 8 nM with Bryostatin 1, above 20000 nM in the assay with GW-2580 and above 500 nM in the assay with SGC0946.
Take 647-V (bladder, adherent): the AUC with Lenalidomide amounted to 0.987; with Bryostatin 1 it was 0.986; with GW-2580, 0.979; with SGC0946, 0.983. Further, the half-maximal inhibitory concentration (IC50) with Lenalidomide was above 5000 nM; in the assay with Bryostatin 1, above 8 nM; with GW-2580, above 20000 nM; with SGC0946 it was above 500 nM.
5637 (bladder, adherent): the AUC with Lenalidomide was 0.989; with Bryostatin 1 it was 0.977; with GW-2580, 0.972; in the assay with SGC0946, 0.989. Also, the IC50 with Lenalidomide is above 5000 nM; in the assay with Bryostatin 1 it was above 8 nM; with GW-2580, above 20000 nM; with SGC0946 it was above 500 nM.
For 8305C (thyroid, adherent), the AUC came to 0.981 in the assay with Lenalidomide, 0.975 with Bryostatin 1, 0.978 in the assay with GW-2580 and 0.979 in the assay with SGC0946. Further, the IC50 with Lenalidomide is above 5000 nM; in the assay with Bryostatin 1, above 8 nM; with GW-2580, above 20000 nM; in the assay with SGC0946 it was above 500 nM.
Take 8505C (thyroid, adherent): the AUC with Lenalidomide came to 0.984; with Bryostatin 1, 0.932; with GW-2580 it was 0.984; with SGC0946 it was 0.974. The IC50 with Lenalidomide is above 5000 nM; in the assay with Bryostatin 1, above 8 nM; in the assay with GW-2580, above 20000 nM; with SGC0946 it was above 500 nM.
With 23132-87 (stomach, adherent), the AUC worked out at 0.986 with Lenalidomide, 0.928 with Bryostatin 1, 0.984 with GW-2580 and 0.975 in the assay with SGC0946. The half-maximal inhibitory concentration (IC50) with Lenalidomide is above 5000 nM; in the assay with Bryostatin 1, above 8 nM; with GW-2580, above 20000 nM; with SGC0946, above 500 nM.
On to A101D (melanoma, adherent), for which the AUC in the assay with Lenalidomide is 0.942; in the assay with Bryostatin 1, 0.922; in the assay with GW-2580, 0.981; with SGC0946, 0.967. Further, the IC50 with Lenalidomide was above 5000 nM; in the assay with Bryostatin 1, above 8 nM; in the assay with GW-2580, above 20000 nM; in the assay with SGC0946, above 500 nM.
On to A375 (melanoma, adherent), for which the AUC in the assay with Lenalidomide was found to be 0.964; in the assay with Bryostatin 1, 0.988; with GW-2580, 0.991; with SGC0946 it was 0.991. Also, the half-inhibitory concentration (IC50) with Lenalidomide was above 5000 nM; with Bryostatin 1, above 8 nM; with GW-2580, above 20000 nM; with SGC0946, above 500 nM.
For “A427 (non-small cell lung carcinoma, adherent)”, the AUC was determined as 0.979 with Lenalidomide, 0.985 with Bryostatin 1, 0.98 with GW-2580 and 0.985 in the assay with SGC0946. For the same cell line, the half-maximal inhibitory concentration (IC50) was above 5000 nM in the assay with Lenalidomide, above 8 nM with Bryostatin 1, above 20000 nM with GW-2580 and above 500 nM with SGC0946.
Consider A431 (skin, adherent), for which the AUC was determined as 0.984 in the assay with Lenalidomide, 0.969 with Bryostatin 1, 0.974 in the assay with GW-2580 and 0.987 in the assay with SGC0946. For the same cell line, the IC50 was above 5000 nM with Lenalidomide, above 8 nM with Bryostatin 1, above 20000 nM with GW-2580 and above 500 nM with SGC0946.
Turning to A498 (kidney, adherent), the AUC with Lenalidomide is 0.933; with Bryostatin 1, 0.907; with GW-2580, 0.968; with SGC0946, 0.963. The 50% inhibitory concentration (IC50) with Lenalidomide is above 5000 nM; with Bryostatin 1 it was above 8 nM; with GW-2580, above 20000 nM; in the assay with SGC0946, above 500 nM.
